Measured values from PMC7228970.
Results are given in words; binding and its absence hold for the method and conditions named. Binding seen in cells or lysates may run through a third protein. Some results given as binding are weak or reduced against the parent protein; the word gives no strength. For some assays here: Sequences can lack the tags named with a protein.

By UniProt entry, the sequences of proteins in these tests, tags left out. Where a name states a change or a piece, a line headed by the entry shows the natural chain unless it says otherwise. Chains listed by the source or under a name are the forms on record and can include a tag or linker.
UniProt P21951: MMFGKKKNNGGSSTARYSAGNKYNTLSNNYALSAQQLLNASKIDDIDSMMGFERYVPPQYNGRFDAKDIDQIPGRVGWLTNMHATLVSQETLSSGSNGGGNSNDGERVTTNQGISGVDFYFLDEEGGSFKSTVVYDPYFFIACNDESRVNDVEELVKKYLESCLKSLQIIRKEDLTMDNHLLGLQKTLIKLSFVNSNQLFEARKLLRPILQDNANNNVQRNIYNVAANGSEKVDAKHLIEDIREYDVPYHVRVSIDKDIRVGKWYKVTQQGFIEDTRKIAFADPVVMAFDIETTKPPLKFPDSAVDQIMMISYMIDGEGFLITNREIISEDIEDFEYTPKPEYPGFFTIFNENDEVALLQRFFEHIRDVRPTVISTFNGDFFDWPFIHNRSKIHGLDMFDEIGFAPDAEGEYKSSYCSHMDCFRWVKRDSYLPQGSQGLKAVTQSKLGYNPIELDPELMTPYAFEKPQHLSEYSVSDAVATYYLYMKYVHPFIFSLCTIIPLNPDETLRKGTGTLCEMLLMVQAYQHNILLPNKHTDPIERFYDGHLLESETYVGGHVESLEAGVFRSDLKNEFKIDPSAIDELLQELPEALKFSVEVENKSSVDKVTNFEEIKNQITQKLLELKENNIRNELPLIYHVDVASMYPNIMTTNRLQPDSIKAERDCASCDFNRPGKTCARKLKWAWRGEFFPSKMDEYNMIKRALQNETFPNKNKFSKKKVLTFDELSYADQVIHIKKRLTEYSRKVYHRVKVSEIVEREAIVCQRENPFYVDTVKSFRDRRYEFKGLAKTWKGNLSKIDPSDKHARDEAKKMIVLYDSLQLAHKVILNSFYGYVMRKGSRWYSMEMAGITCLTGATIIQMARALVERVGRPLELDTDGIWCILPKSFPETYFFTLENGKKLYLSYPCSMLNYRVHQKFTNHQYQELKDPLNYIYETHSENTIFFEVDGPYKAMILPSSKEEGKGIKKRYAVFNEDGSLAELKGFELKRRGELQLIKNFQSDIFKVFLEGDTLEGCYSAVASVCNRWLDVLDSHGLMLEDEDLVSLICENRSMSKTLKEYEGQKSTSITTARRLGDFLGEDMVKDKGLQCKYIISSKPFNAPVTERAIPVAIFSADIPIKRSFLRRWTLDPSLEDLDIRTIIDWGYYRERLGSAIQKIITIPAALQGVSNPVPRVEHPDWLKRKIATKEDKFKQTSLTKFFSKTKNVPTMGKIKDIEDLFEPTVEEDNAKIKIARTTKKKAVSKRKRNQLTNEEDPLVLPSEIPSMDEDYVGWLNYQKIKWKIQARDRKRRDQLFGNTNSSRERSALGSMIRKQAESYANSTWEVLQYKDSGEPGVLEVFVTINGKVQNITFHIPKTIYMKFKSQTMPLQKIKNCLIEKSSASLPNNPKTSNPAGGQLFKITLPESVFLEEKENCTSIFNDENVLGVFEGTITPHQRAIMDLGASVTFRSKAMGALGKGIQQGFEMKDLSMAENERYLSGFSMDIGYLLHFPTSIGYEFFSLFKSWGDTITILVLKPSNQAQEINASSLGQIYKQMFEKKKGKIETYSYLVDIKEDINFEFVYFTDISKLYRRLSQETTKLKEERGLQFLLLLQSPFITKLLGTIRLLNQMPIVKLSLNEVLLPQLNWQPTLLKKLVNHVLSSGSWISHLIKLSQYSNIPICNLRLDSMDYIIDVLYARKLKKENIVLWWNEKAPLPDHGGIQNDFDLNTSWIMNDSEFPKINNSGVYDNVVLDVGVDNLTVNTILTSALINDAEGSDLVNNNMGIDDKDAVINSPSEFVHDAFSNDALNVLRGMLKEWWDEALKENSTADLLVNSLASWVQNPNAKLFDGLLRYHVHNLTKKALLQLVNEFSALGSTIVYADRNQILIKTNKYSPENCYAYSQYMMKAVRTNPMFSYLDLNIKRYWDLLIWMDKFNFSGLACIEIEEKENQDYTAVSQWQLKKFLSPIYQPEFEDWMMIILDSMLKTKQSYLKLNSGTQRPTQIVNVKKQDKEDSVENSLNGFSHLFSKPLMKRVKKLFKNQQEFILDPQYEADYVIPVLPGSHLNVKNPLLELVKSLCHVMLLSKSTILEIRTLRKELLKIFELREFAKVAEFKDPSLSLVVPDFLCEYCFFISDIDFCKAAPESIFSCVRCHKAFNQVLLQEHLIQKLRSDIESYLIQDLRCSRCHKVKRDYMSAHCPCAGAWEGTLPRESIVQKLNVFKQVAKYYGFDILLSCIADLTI
HA-tagged Pol2-REL (P21951, form named): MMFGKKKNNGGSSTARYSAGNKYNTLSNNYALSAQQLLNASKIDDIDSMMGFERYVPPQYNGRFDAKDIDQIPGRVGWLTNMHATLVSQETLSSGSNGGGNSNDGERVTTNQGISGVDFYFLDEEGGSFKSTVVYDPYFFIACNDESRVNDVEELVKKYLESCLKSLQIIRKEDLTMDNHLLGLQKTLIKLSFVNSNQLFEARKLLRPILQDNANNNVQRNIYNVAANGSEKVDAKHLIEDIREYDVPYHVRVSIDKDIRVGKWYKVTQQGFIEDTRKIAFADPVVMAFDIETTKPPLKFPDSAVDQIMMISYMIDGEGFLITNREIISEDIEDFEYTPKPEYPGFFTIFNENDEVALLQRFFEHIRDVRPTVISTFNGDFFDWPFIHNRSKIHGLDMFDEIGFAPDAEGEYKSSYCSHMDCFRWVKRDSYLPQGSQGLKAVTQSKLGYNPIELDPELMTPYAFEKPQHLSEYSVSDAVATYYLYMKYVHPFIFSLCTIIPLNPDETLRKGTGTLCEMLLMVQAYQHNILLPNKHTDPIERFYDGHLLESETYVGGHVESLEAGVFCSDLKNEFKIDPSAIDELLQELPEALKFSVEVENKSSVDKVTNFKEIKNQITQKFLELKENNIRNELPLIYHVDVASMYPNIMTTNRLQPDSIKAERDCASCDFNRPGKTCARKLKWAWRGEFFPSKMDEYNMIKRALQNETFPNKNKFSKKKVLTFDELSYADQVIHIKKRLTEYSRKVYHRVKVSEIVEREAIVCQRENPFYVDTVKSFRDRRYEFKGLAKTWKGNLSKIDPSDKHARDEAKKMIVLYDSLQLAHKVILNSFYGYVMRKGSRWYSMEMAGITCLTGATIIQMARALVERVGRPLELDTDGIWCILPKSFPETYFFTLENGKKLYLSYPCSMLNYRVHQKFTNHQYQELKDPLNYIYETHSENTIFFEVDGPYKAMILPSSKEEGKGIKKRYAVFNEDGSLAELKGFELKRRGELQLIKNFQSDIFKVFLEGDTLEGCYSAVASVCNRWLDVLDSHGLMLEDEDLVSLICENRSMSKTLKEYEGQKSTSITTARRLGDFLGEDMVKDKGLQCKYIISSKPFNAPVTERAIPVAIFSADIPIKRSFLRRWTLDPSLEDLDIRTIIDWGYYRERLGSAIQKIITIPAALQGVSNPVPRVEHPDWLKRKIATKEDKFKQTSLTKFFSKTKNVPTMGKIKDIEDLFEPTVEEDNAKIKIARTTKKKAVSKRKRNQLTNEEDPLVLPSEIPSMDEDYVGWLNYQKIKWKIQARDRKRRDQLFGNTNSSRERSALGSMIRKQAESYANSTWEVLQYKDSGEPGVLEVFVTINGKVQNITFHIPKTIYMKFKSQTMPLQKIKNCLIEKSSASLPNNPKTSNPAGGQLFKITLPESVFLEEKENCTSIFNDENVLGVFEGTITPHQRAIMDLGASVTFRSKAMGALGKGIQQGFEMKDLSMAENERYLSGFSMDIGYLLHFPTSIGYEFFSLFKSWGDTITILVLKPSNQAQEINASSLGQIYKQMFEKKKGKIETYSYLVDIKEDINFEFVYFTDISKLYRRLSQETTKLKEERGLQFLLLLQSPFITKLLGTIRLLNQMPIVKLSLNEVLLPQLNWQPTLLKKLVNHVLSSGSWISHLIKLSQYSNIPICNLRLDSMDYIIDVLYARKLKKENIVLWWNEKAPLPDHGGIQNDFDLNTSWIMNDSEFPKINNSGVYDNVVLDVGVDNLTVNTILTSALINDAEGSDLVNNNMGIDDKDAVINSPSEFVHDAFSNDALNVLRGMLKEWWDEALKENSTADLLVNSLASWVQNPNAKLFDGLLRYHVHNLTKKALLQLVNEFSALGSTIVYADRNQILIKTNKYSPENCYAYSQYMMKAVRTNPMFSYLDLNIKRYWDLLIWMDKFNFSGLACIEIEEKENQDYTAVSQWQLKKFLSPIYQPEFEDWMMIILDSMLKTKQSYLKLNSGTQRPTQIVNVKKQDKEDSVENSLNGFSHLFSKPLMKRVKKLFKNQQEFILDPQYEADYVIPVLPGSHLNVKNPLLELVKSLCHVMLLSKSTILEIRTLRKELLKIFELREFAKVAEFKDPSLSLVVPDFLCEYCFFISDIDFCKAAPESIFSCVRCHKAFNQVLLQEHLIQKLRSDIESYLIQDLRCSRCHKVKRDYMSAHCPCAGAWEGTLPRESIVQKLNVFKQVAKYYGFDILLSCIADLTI

T1: Flag-tagged Sld2 (budding yeast) (UniProt P34252)
T1 sequence: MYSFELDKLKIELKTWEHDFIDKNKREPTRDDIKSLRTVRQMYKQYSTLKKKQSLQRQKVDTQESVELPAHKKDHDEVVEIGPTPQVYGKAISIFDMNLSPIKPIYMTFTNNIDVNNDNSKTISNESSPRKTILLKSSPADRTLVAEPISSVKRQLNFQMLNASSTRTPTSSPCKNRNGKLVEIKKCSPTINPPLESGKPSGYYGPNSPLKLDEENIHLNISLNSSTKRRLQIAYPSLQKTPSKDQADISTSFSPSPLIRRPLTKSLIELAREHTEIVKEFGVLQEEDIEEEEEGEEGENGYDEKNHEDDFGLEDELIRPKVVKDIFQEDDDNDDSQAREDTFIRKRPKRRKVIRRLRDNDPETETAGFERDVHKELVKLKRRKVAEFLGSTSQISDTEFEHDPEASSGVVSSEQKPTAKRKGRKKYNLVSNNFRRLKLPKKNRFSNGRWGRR


What was measured:
[1] = molecular target: T1, Flag-tagged Sld2 (budding yeast); assay: co-IP; Flag-tagged Sld2 immunoprecipitated from Benzonase-treated whole-cell extract of S phase cells after mild cross-linking (1% formaldehyde, 20 min); 50 mM HEPES-KOH pH 7.5, 140 mM NaCl, 1% TritonX-100; wild-type and pol2-REL cells, with or without Dpb11 overexpression; western blot
[2] = molecular target: T1, Flag-tagged Sld2 (budding yeast); assay: co-IP; as a3, but G1 phase cells
[3] = molecular target: HA-tagged Pol2-REL (budding yeast) (UniProt P21951); assay: co-IP; HA-tagged Pol2 (wild type or REL) immunoprecipitated, done as the Sld2 IP (mild formaldehyde cross-linking, Benzonase-treated whole-cell extract); G1 or S phase cells at 24 °C, or 37 °C with galactose-induced Dpb11 overexpression; western blot
[4] = molecular target: HA-tagged Pol2 (wild type) (budding yeast) (UniProt P21951); assay: as above

| Molecule | binding [1] | binding [2] | binding [3] | binding [4] |
| --- | --- | --- | --- | --- |
| HA-tagged Pol2-REL (from UniProt P21951 1-2222) | binds weakly | – | – | – |
| HA-tagged Pol2 (wild type) (from UniProt P21951 1-2222) | binds | no binding (condition: G1 phase cells) | – | – |
| Dpb2 (protein, UniProt P24482 1-689) MFGSGNVLPVKIQPPLLRPLAYRVLSRKYGLSIKSDGLSALAEFVGTNIGANWRQGPATIKFLEQFAAVWKQQERGLFIDQSGVKEVIQEMKEREKVEWSHEHPIQHEENILGRTDDDENNSDDEMPIAADSSLQNVSLSSPMRQPTERDEYKQPFKPESSKALDWRDYFKVINASQQQRFSYNPHKMQFIFVPNKKQNGLGGIAGFLPDIEDKVQMFLTRYYLTNDRVMRNENFQNSDMFNPLSSMVSLQNELSNTNRQQQSSSMSITPIKNLLGRDAQNFLLLGLLNKNFKGNWSLEDPSGSVEIDISQTIPTQGHYYVPGCMVLVEGIYYSVGNKFHVTSMTLPPGERREITLETIGNLDLLGIHGISNNNFIARLDKDLKIRLHLLEKELTDHKFVILGANLFLDDLKIMTALSKILQKLNDDPPTLLIWQGSFTSVPVFASMSSRNISSSTQFKNNFDALATLLSRFDNLTENTTMIFIPGPNDLWGSMVSLGASGTLPQDPIPSAFTKKINKVCKNVVWSSNPTRIAYLSQEIVIFRDDLSGRFKRHRLEFPFNESEDVYTENDNMMSKDTDIVPIDELVKEPDQLPQKVQETRKLVKTILDQGHLSPFLDSLRPISWDLDHTLTLCPIPSTMVLCDTTSAQFDLTYNGCKVINPGSFIHNRRARYMEYVPSSKKTIQEEIYI | – | – | binds | binds |
| Dpb11 (protein, UniProt P47027 1-764) MKPFQGITFCPTAINNEILAKKISKKIIKLGGIFSKDLTRQVNVLVVGSTTNTNKFKFAVKHRFDIIFIDIQAIDDIYQLWLSGENILPDSNTATMTGSTYEMLKILYRRFSFKYLHNFNIFIGRITDTNITSIDSLVRSIKKLGCSSYNYQNFVIKDTSSHNDDDDQGQNGQISIFVTDTLLGARVNAAIEQNIPIVHFKWILDCQKRSALLPYDPYYLLPNIKDLPYDSIGSNSCDCWDKINTTFPTNIDAQSSLQRQQSSSTLTPSLPKTSSLLNKFKPKGEKIWDKAMSLQQHSKTNFSVLGQSPLSINNKQEDLSDNSTLIFKNCAFIIHHIFPGNHRSILTKIVVQNGGKIETSYLSGIYDHSYYIIPSNKALDSFNDLPEIIDDNDGIVTEFFIERCLYYQKLLHPIDLWSKPFLSTIEFQVSSSSKLLHHEFSSSPFLNVTITGFSGVELLHLTKVLNLLKPMGINYVEYLNKSTDILLINLAALPSIPKTHPLWSNEFSDLFTQFCINNNNDDPGDNNRKDFQNNSILRNSMKRKIEYIKKFHSIPVVTPAFIFKLLSAASGENNEIFLNNIKWCIICPRGHKDDFKCKIKKPYYTSISSEKKYQNNDPKIDKTILLKRNNSSLSEHSMKDTKNELLQKIRETDSGRKKRSVSSSIMDVSSERQMPDTKRIKLESLPKNFVPKQIKRTTSWGTIMSENVPTEQPTAISNPEEIPRTEEVSHTQVTYGSIQDKKRTASLEKPMRRQTRNQTKELDS | binds | no binding (condition: G1 phase cells) | binds | binds |
| Psf1 (protein, UniProt Q12488 1-208) MYGDLGNKLVLEAKRTKQLYARSNQDVNLPMYHEDIIRNILKEVSNLRKNTEYLKEQQQLGMLDDKVAKCQYFVTLLCMERNKRCLLAYQRLRTDILDSMAWNNNGLDLMSSITFSQQDTNNLSHQEQEYLKEYCDLITDLKSGDLVDIDLSGSLVPPSDVFIDVRVLKDAGEIQTEYGVFNLIKDSQFFVRQSDVERLIQQGYLQKI | binds | no binding (condition: G1 phase cells) | – | – |
